# Some of the results follow.
# Assays:
# Assay in all cases: glycan array binding signal (z-score within array); higher = stronger binding
# Settings in all cases: glycan notation: IUPAC condensed, linker removed
# [1] = biological target: Man(a1-6)Man
# In short: (§1)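 Glycan array data were curated from 3228 arrays in the Consortium for Functional Glycomics database and kept only where the protein sequence was available. Glycan names were converted to IUPAC-condensed notation, and columns mapping to the same glycan were averaged. The binding signal is a within-array Z-score, averaged across arrays of the same protein sequence at different concentrations or buffers and across linkers. Negative Z-scores can be read as non-binding.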
# [2] = biological target: Man(b1-4)GlcNAc
# In short: as §1
# [3] = biological target: MurNAc(b1-4)GlcNAc
# In short: as §1
# [4] = biological target: Neu5Ac(a2-3)Gal
# In short: as §1
# [5] = biological target: Neu5Ac(a2-3)Gal(b1-3)GalNAc
# In short: as §1
# [6] = biological target: Neu5Ac(a2-3)Gal(b1-3)GalNAc(b1-3)Gal(a1-4)Gal(b1-4)Glc
# In short: as §1
# [7] = biological target: Neu5Ac(a2-3)Gal(b1-3)GalNAc(b1-3)Gal(b1-4)GlcNAc
# In short: as §1
# [8] = biological target: Neu5Ac(a2-3)Gal(b1-3)GalNAc(b1-4)[Neu5Ac(a2-3)]Gal(b1-4)Glc
# In short: as §1
# [9] = biological target: Neu5Ac(a2-3)Gal(b1-3)GalNAc(b1-4)[Neu5Ac(a2-8)Neu5Ac(a2-3)]Gal(b1-4)Glc
# In short: as §1
# [10] = biological target: Neu5Ac(a2-3)Gal(b1-3)GalNAc6S
# In short: as §1
# [11] = biological target: Neu5Ac(a2-3)Gal(b1-3)GlcNAc
# In short: as §1
# [12] = biological target: Neu5Ac(a2-3)Gal(b1-3)GlcNAc(b1-2)Man
# In short: as §1
# [13] = biological target: Neu5Ac(a2-3)Gal(b1-3)GlcNAc(b1-2)Man(a1-3)[GlcNAc(b1-4)][Neu5Ac(a2-3)Gal(b1-3)GlcNAc(b1-2)Man(a1-6)]Man(b1-4)GlcNAc(b1-4)GlcNAc
# In short: as §1
# [14] = biological target: Neu5Ac(a2-3)Gal(b1-3)GlcNAc(b1-2)Man(a1-3)[Neu5Ac(a2-3)Gal(b1-3)GlcNAc(b1-2)Man(a1-6)]Man(b1-4)GlcNAc(b1-4)GlcNAc
# In short: as §1
# [15] = biological target: Neu5Ac(a2-3)Gal(b1-3)GlcNAc(b1-3)Gal(b1-3)GlcNAc
# In short: as §1
# [16] = biological target: Neu5Ac(a2-3)Gal(b1-3)GlcNAc(b1-3)Gal(b1-4)GlcNAc
# In short: as §1
# [17] = biological target: Neu5Ac(a2-3)Gal(b1-3)GlcNAc(b1-3)GalNAc
# In short: as §1
# [18] = biological target: Neu5Ac(a2-3)Gal(b1-3)GlcNAc(b1-4)Gal(b1-4)Glc
# In short: as §1
# [19] = biological target: Neu5Ac(a2-3)Gal(b1-3)GlcNAc(b1-6)GalNAc
# In short: as §1
# [20] = biological target: Neu5Ac(a2-3)Gal(b1-3)GlcNAc6S
# In short: as §1
# [21] = biological target: Neu5Ac(a2-3)Gal(b1-3)[Fuc(a1-4)]GlcNAc
# In short: as §1
# [22] = biological target: Neu5Ac(a2-3)Gal(b1-3)[Fuc(a1-4)]GlcNAc(b1-3)Gal(b1-3)[Fuc(a1-4)]GlcNAc
# In short: as §1
# [23] = biological target: Neu5Ac(a2-3)Gal(b1-3)[Fuc(a1-4)]GlcNAc(b1-3)Gal(b1-4)[Fuc(a1-3)]GlcNAc
# In short: as §1
# [24] = biological target: Neu5Ac(a2-3)Gal(b1-3)[GlcNAc(b1-6)]GalNAc
# In short: as §1
# [25] = biological target: Neu5Ac(a2-3)Gal(b1-3)[Neu5Ac(a2-3)Gal(b1-4)]GlcNAc
# In short: as §1
# [26] = biological target: Neu5Ac(a2-3)Gal(b1-3)[Neu5Ac(a2-6)]GalNAc
# In short: as §1
# [27] = biological target: Neu5Ac(a2-3)Gal(b1-3)[Neu5Ac(a2-6)]GlcNAc(b1-3)[Fuc(a1-3)[Gal(b1-4)]GlcNAc(b1-6)]Gal(b1-4)Glc
# In short: as §1
# [28] = biological target: Neu5Ac(a2-3)Gal(b1-3)]Neu5Ac(a2-3)Gal(b1-4)]GlcNAc
# In short: as §1
# [29] = biological target: Neu5Ac(a2-3)Gal(b1-4)Glc
# In short: as §1
# [30] = biological target: Neu5Ac(a2-3)Gal(b1-4)GlcNAc
# In short: as §1
# [31] = biological target: Neu5Ac(a2-3)Gal(b1-4)GlcNAc(b1-2)Man
# In short: as §1
# [32] = biological target: Neu5Ac(a2-3)Gal(b1-4)GlcNAc(b1-2)Man(a1-3)[GlcNAc(b1-4)][Neu5Ac(a2-3)Gal(b1-4)GlcNAc(b1-2)Man(a1-6)]Man(b1-4)GlcNAc(b1-4)GlcNAc
# In short: as §1
# [33] = biological target: Neu5Ac(a2-3)Gal(b1-4)GlcNAc(b1-2)Man(a1-3)[Neu5Ac(a2-3)Gal(b1-4)GlcNAc(b1-2)Man(a1-6)]Man(b1-4)GlcNAc(b1-4)GlcNAc
# In short: as §1
# [34] = biological target: Neu5Ac(a2-3)Gal(b1-4)GlcNAc(b1-2)Man(a1-3)[Neu5Ac(a2-3)Gal(b1-4)GlcNAc(b1-2)Man(a1-6)]Man(b1-4)GlcNAc(b1-4)[Fuc(a1-6)]GlcNAc
# In short: as §1
# [35] = biological target: Neu5Ac(a2-3)Gal(b1-4)GlcNAc(b1-2)Man(a1-3)[Neu5Ac(a2-6)Gal(b1-4)GlcNAc(b1-2)Man(a1-6)]Man(b1-4)GlcNAc(b1-4)GlcNAc
# In short: as §1
# [36] = biological target: Neu5Ac(a2-3)Gal(b1-4)GlcNAc(b1-2)[Neu5Ac(a2-3)Gal(b1-4)GlcNAc(b1-4)]Man(a1-3)[GlcNAc(b1-4)][Neu5Ac(a2-3)Gal(b1-4)GlcNAc(b1-2)[Neu5Ac(a2-3)Gal(b1-4)GlcNAc(b1-6)]Man(a1-6)]Man(b1-4)GlcNAc(b1-4)GlcNAc
# In short: as §1
# [37] = biological target: Neu5Ac(a2-3)Gal(b1-4)GlcNAc(b1-2)[Neu5Ac(a2-3)Gal(b1-4)GlcNAc(b1-4)]Man(a1-3)[GlcNAc(b1-4)][Neu5Ac(a2-3)Gal(b1-4)GlcNAc(b1-4)Man(a1-6)]Man(b1-4)GlcNAc(b1-4)GlcNAc
# In short: as §1
# [38] = biological target: Neu5Ac(a2-3)Gal(b1-4)GlcNAc(b1-2)[Neu5Ac(a2-3)Gal(b1-4)GlcNAc(b1-6)]Man(a1-6)[Neu5Ac(a2-3)Gal(b1-4)GlcNAc(b1-2)Man(a1-3)]Man(b1-4)GlcNAc(b1-4)GlcNAc
# In short: as §1
binder,measurement,setting,value
GSL-I (Griffonia simplicifolia) (protein) FNLPNFWSDVKDNIIFQGDANTTAGTLQLCKTNQYGNPLQYRAGRALYSDPVQLWDNKTGSVASFYTEFTFFLKITGDGPADGLAFFLAPPDSDVKDAGAYLGLFNKSTATQPSKNQVVAVEFDTWKNTDFPEPSYRHIGINVNSIVSVATKRWEDSDIFSGKIATARISYDGSAKILTVVLSYPDGADYILSHSVDLSKNLPNPIRVGISASTGANQFLTVYVLSWRFSSALQSTSVNAAMGPEIIRTVV,glycan array binding signal (z-score),[1],-0.131
same,glycan array binding signal (z-score),[2],-0.164
same,glycan array binding signal (z-score),[3],-0.186
same,glycan array binding signal (z-score),[4],-0.186
same,glycan array binding signal (z-score),[5],-0.31
same,glycan array binding signal (z-score),[6],-0.15
same,glycan array binding signal (z-score),[7],-0.315
same,glycan array binding signal (z-score),[8],-0.245
same,glycan array binding signal (z-score),[9],-0.109
same,glycan array binding signal (z-score),[10],-0.211
same,glycan array binding signal (z-score),[11],-0.225
same,glycan array binding signal (z-score),[12],-0.133
same,glycan array binding signal (z-score),[13],-0.263
same,glycan array binding signal (z-score),[14],-0.225
same,glycan array binding signal (z-score),[15],-0.152
same,glycan array binding signal (z-score),[16],-0.234
same,glycan array binding signal (z-score),[17],-0.127
same,glycan array binding signal (z-score),[18],-0.224
same,glycan array binding signal (z-score),[19],-0.234
same,glycan array binding signal (z-score),[20],0.048
same,glycan array binding signal (z-score),[21],-0.301
same,glycan array binding signal (z-score),[22],-0.009
same,glycan array binding signal (z-score),[23],-0.244
same,glycan array binding signal (z-score),[24],-0.286
same,glycan array binding signal (z-score),[25],-0.318
same,glycan array binding signal (z-score),[26],-0.189
same,glycan array binding signal (z-score),[27],-0.185
same,glycan array binding signal (z-score),[28],-0.158
same,glycan array binding signal (z-score),[29],-0.154
same,glycan array binding signal (z-score),[30],-0.25
same,glycan array binding signal (z-score),[31],-0.07
same,glycan array binding signal (z-score),[32],-0.295
same,glycan array binding signal (z-score),[33],-0.119
same,glycan array binding signal (z-score),[34],-0.283
same,glycan array binding signal (z-score),[35],-0.197
same,glycan array binding signal (z-score),[36],-0.195
same,glycan array binding signal (z-score),[37],-0.277
same,glycan array binding signal (z-score),[38],-0.144

# Source: the supplement of paper PMC8728848
